This is one part of the list.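 The calls were made as follows: active = average curve height above 101 Omnilog units; inactive = average height at or below 101.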 Single values are uncertain, as repeats are few or missing.
Tests used:
[1] = system: Acinetobacter baumannii AB6870155; test: respiration area under curve on compound as sole carbon source (Biolog PM, 48 h) (arbitrary Omnilog units x h (AUC)); higher = more carbon source utilisation / respiration; conditions: Biolog inoculating fluid, temperature: 37 °C
[2] = system: Klebsiella pneumoniae KP6870155; test: as above; conditions: Biolog inoculating fluid, temperature: 37 °C

Compound | respiration area under curve [1] | respiration area under curve [2]
O=c1ccn([C@@H]2O[C@H](CO)[C@@H](O)[C@H]2O)c(=O)[nH]1 [Uridine] | inactive: 2510 | active: 12200
N[C@H](CO)C(=O)O [D-Serine] | inactive: 1900 | inactive: 7360
OC[C@H]1O[C@@H]2O[C@H]3[C@H](O)[C@@H](O)[C@@H](O[C@H]4[C@H](O)[C@@H](O)[C@@H](O[C@H]5[C@H](O)[C@@H](O)[C@@H](O[C@H]6[C@H](O)[C@@H](O)[C@@H](O[C@H]7[C@H](O)[C@@H](O)[C@@H](O[C@H]8[C@H](O)[C@@H](O)[C@@H](O[C@H]9[C@H](O)[C@@H](O)[C@@H](O[C@H]1[C@H](O)[C@H]2O)O[C@@H]9CO)O[C@@H]8CO)O[C@@H]7CO)O[C@@H]6CO)O[C@@H]5CO)O[C@@H]4CO)O[C@@H]3CO [Gamma-Cyclodextrin] | inactive: 2090 | inactive: 4540
N[C@@H](CO)C(=O)O [L-Serine] | inactive: 2720 | active: 10900
CSCC[C@H](N)C(=O)O [L-Methionine] | inactive: 1870 | inactive: 4710
O=C(O)[C@]1(O)C[C@@H](O)[C@@H](O)[C@H](O)C1 [Quinic Acid] | active: 10600 | active: 11500
O=c1[nH]cnc2c1ncn2[C@@H]1O[C@H](CO)[C@@H](O)[C@H]1O [Inosine] | inactive: 2670 | active: 12200
OCC(O)CO [Glycerol] | inactive: 1420 | active: 10300
NCC(=O)O [Glycine] | inactive: 575 | inactive: 3330
O=CO [Formic Acid] | inactive: 2950 | inactive: 7050
O=C(O)CC(CC(=O)O)C(=O)O [Tricarballylic Acid] | active: 10500 | inactive: 4010
O=C(O)[C@@H]1C[C@@H](O)CN1 [Hydroxy-L-Proline] | active: 11700 | active: 11300
CCCCCCCCCC(=O)O [Capric Acid] | inactive: 1810 | inactive: 3170
C=C(CC(=O)O)C(=O)O [Itaconic Acid] | inactive: 1400 | inactive: 1710
Cc1cn([C@H]2C[C@H](O)[C@@H](CO)O2)c(=O)[nH]c1=O [Thymidine] | inactive: 2330 | active: 11700
CC(=O)C(=O)O [Pyruvic Acid] | active: 11900 | active: 11600
O=C(CO)[C@@H](O)[C@H](O)[C@H](O)CO [D-Fructose] | inactive: 1580 | active: 11800

Compound | respiration area under curve [1] | respiration area under curve [2]
CC(=O)C(C)O (stereo unspecified) [3-Hydroxy-2-Butanone] | inactive: 2800 | inactive: 4840
O=C(O)CCC(=O)C(=O)O [Alpha-Keto-Glutaric Acid] | active: 9920 | inactive: 3470
C[C@H](N)C(=O)O [L-Alanine] | active: 12100 | active: 11100
O=C(O)C[C@@H](O)C(=O)O [D-Malic Acid] | inactive: 7720 | inactive: 7180
O=C(O)[C@@H]1CCCN1 [L-Proline] | active: 11900 | active: 12000
O=P(O)(O)OCC(O)CO (racemic) [D,L-alpha-Glycerol-Phosphate] | inactive: 1600 | active: 11300
O=CC(=O)O [Glyoxylic Acid] | inactive: 1890 | inactive: 3380
NCCO [2-Aminoethanol] | inactive: 3330 | inactive: 5150
O=P(O)(O)O[C@H]1O[C@H](CO)[C@@H](O)[C@H](O)[C@H]1O [D-Glucose-1-Phosphate] | inactive: 1510 | active: 11700
CCC(=O)C(=O)O [Alpha-Keto-Butyric Acid] | active: 9580 | inactive: 2460
O=C[C@H](O)[C@@H](O)[C@H](O)[C@H](O)CO[C@@H]1O[C@H](CO)[C@@H](O)[C@H](O)[C@H]1O [Gentiobiose] | inactive: 2660 | active: 12300
OC[C@@H](O)[C@@H](O)[C@H](O)[C@@H](O)CO [D-Sorbitol] | inactive: 1690 | active: 10700
OC[C@H]1O[C@H](OC[C@H]2O[C@H](OC[C@H]3O[C@H](O[C@]4(CO)O[C@H](CO)[C@@H](O)[C@@H]4O)[C@H](O)[C@@H](O)[C@@H]3O)[C@H](O)[C@@H](O)[C@H]2O)[C@H](O)[C@@H](O)[C@H]1O [Stachyose] | inactive: 1440 | active: 11900
O=C(O)CC(O)(C(=O)O)C(=O)C(=O)O (stereo unspecified) [Oxalomalic Acid] | inactive: 2020 | inactive: 4310
O=C(O)c1ccccc1O [2-Hydroxy Benzoic Acid] | inactive: 684 | inactive: 1100
O=C(O)CO [Glycolic Acid] | inactive: 1860 | inactive: 3650

From the supplement of paper PMC9911699
